Measurements published in publication PMC12820563, “FoxP3 forms a head-to-head dimer in vivo and stabilizes its multimerization on adjacent microsatellites”.
The other results are listed elsewhere or left out.

Target: T1, MBP-FoxP1dN (Mus musculus, UniProt P58462 326-579)
T1 sequence: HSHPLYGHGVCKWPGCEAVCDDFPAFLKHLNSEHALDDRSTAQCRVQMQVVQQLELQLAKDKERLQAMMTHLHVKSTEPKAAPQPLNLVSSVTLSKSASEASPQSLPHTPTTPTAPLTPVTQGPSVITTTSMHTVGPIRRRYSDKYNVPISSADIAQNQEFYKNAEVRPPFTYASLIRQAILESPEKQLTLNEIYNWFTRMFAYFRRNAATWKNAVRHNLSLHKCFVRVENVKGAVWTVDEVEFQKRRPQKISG
Test: PD-seq (MBP pull-down with sequencing); 20 mM Tris-HCl pH 7.5, 100 mM NaCl, 1.5 mM MgCl2, 0.4 uM protein, 0.1 uM dsDNA library, 30 min, room temperature, amylose pull-down; high values mean tight binding
Settings: protein: recombinant; tags: His6-MBP; chain copies: 2; dsDNA, one strand shown
How it was run: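 Binding is reads-per-million enrichment of pull-down over input, with replicates pooled. It comes from 30 min room-temperature incubation in Tris pH 7.5 buffer with NaCl and MgCl2 of 0.4 µM His6-MBP-tagged, N-terminally truncated mouse FoxP3 or FoxP1 fragment from E. coli with 0.1 µM Klenow-filled degenerate double-stranded DNA library, followed by amylose resin capture, three washes and Illumina sequencing of the released DNA.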

Sequence | binding signal
GATGATTGTTCTCCCAGCTGATGAATTGCACTATTCGAGTAAACAAATTTTCCTAATCTTTCTGTTCAAGCGCCATCTAC | 1.28 RPM ratio (pull-down/input)
GATGATTGTTCTCCCAGCTGATGAATTAGTGCAATCGAGTAAACAAATTTTCCTAATCTTTCTGTTCAAGCGCCATCTAC | 1.36 RPM ratio (pull-down/input)
GATGATTGTTCTCCCAGCTGATGAATTCAAAAGTTCGAGTAAACAAATTTTCCTAATCTTTCTGTTCAAGCGCCATCTAC | 0.849 RPM ratio (pull-down/input)
GATGATTGTTCTCCCAGCTGATGAATTAATACCTTCGAGTAAACAAATTTTCCTAATCTTTCTGTTCAAGCGCCATCTAC | 0.981 RPM ratio (pull-down/input)
GATGATTGTTCTCCCAGCTGATGAATTGCTTTTCTCGAGTAAACAAATTTTCCTAATCTTTCTGTTCAAGCGCCATCTAC | 1.32 RPM ratio (pull-down/input)
GATGATTGTTCTCCCAGCTGATGAATTTATGTCCTCGAGTAAACAAATTTTCCTAATCTTTCTGTTCAAGCGCCATCTAC | 1.17 RPM ratio (pull-down/input)
GATGATTGTTCTCCCAGCTGATGAATTTTTCTCGTCGAGTAAACAAATTTTCCTAATCTTTCTGTTCAAGCGCCATCTAC | 0.979 RPM ratio (pull-down/input)
GATGATTGTTCTCCCAGCTGATGAATTCTCCTAGTCGAGTAAACAAATTTTCCTAATCTTTCTGTTCAAGCGCCATCTAC | 0.791 RPM ratio (pull-down/input)
GATGATTGTTCTCCCAGCTGATGAATTTCCTCATTCGAGTAAACAAATTTTCCTAATCTTTCTGTTCAAGCGCCATCTAC | 0.924 RPM ratio (pull-down/input)
GATGATTGTTCTCCCAGCTGATGAATTGTCCTGCTCGAGTAAACAAATTTTCCTAATCTTTCTGTTCAAGCGCCATCTAC | 0.933 RPM ratio (pull-down/input)
GATGATTGTTCTCCCAGCTGATGAATTATGTAGTTCGAGTAAACAAATTTTCCTAATCTTTCTGTTCAAGCGCCATCTAC | 1.23 RPM ratio (pull-down/input)
GATGATTGTTCTCCCAGCTGATGAATTCTGTCGCTCGAGTAAACAAATTTTCCTAATCTTTCTGTTCAAGCGCCATCTAC | 0.831 RPM ratio (pull-down/input)
GATGATTGTTCTCCCAGCTGATGAATTTGTTTTCTCGAGTAAACAAATTTTCCTAATCTTTCTGTTCAAGCGCCATCTAC | 2.32 RPM ratio (pull-down/input)
GATGATTGTTCTCCCAGCTGATGAATTGCAGTGGTCGAGTAAACAAATTTTCCTAATCTTTCTGTTCAAGCGCCATCTAC | 0.983 RPM ratio (pull-down/input)
GATGATTGTTCTCCCAGCTGATGAATTTTGCTTTTCGAGTAAACAAATTTTCCTAATCTTTCTGTTCAAGCGCCATCTAC | 1.49 RPM ratio (pull-down/input)
GATGATTGTTCTCCCAGCTGATGAATTCGACGAATCGAGTAAACAAATTTTCCTAATCTTTCTGTTCAAGCGCCATCTAC | 0.971 RPM ratio (pull-down/input)

Sequence | binding signal
GATGATTGTTCTCCCAGCTGATGAATTCACTCTCTCGAGTAAACAAATTTTCCTAATCTTTCTGTTCAAGCGCCATCTAC | 0.834 RPM ratio (pull-down/input)
GATGATTGTTCTCCCAGCTGATGAATTCGTCACGTCGAGTAAACAAATTTTCCTAATCTTTCTGTTCAAGCGCCATCTAC | 0.909 RPM ratio (pull-down/input)
GATGATTGTTCTCCCAGCTGATGAATTGTGGCCCTCGAGTAAACAAATTTTCCTAATCTTTCTGTTCAAGCGCCATCTAC | 0.946 RPM ratio (pull-down/input)
GATGATTGTTCTCCCAGCTGATGAATTGAGTCGCTCGAGTAAACAAATTTTCCTAATCTTTCTGTTCAAGCGCCATCTAC | 0.82 RPM ratio (pull-down/input)
GATGATTGTTCTCCCAGCTGATGAATTATAGGAATCGAGTAAACAAATTTTCCTAATCTTTCTGTTCAAGCGCCATCTAC | 1.02 RPM ratio (pull-down/input)
GATGATTGTTCTCCCAGCTGATGAATTACACTGCTCGAGTAAACAAATTTTCCTAATCTTTCTGTTCAAGCGCCATCTAC | 1.02 RPM ratio (pull-down/input)
GATGATTGTTCTCCCAGCTGATGAATTATCATTGTCGAGTAAACAAATTTTCCTAATCTTTCTGTTCAAGCGCCATCTAC | 1.21 RPM ratio (pull-down/input)
GATGATTGTTCTCCCAGCTGATGAATTGGATACTTCGAGTAAACAAATTTTCCTAATCTTTCTGTTCAAGCGCCATCTAC | 1 RPM ratio (pull-down/input)
GATGATTGTTCTCCCAGCTGATGAATTTCATACTTCGAGTAAACAAATTTTCCTAATCTTTCTGTTCAAGCGCCATCTAC | 0.905 RPM ratio (pull-down/input)
GATGATTGTTCTCCCAGCTGATGAATTCCTCGGCTCGAGTAAACAAATTTTCCTAATCTTTCTGTTCAAGCGCCATCTAC | 0.788 RPM ratio (pull-down/input)
GATGATTGTTCTCCCAGCTGATGAATTAATATGATCGAGTAAACAAATTTTCCTAATCTTTCTGTTCAAGCGCCATCTAC | 1.01 RPM ratio (pull-down/input)
GATGATTGTTCTCCCAGCTGATGAATTTTCGCGTTCGAGTAAACAAATTTTCCTAATCTTTCTGTTCAAGCGCCATCTAC | 1 RPM ratio (pull-down/input)
GATGATTGTTCTCCCAGCTGATGAATTCGCGCATTCGAGTAAACAAATTTTCCTAATCTTTCTGTTCAAGCGCCATCTAC | 1.26 RPM ratio (pull-down/input)
GATGATTGTTCTCCCAGCTGATGAATTATGTCTGTCGAGTAAACAAATTTTCCTAATCTTTCTGTTCAAGCGCCATCTAC | 0.913 RPM ratio (pull-down/input)
GATGATTGTTCTCCCAGCTGATGAATTTTCCGCTTCGAGTAAACAAATTTTCCTAATCTTTCTGTTCAAGCGCCATCTAC | 0.865 RPM ratio (pull-down/input)
